Data reported in the supplement of paper PMC8728848.
Some of the results follow.

Assays:
Experiment in all cases: glycan array binding signal (z-score within array); higher = stronger binding
Conditions in all cases: glycan notation: IUPAC condensed, linker removed
Fuc(a1-2)[Gal(a1-3)]Gal = biological target: Fuc(a1-2)[Gal(a1-3)]Gal
Method in brief: (§1)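 From the Consortium for Functional Glycomics database, 3228 arrays were curated, keeping only those whose protein sequence was available. Binding is given as a within-array Z-score averaged across arrays sharing a protein sequence and across linkers. Negative Z-scores can be read as non-binding.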

[1] = biological target: Fuc(a1-2)[Gal(a1-3)]Gal(b1-3)GlcNAc
Method in brief: as §1

[2] = biological target: Fuc(a1-2)[Gal(a1-3)]Gal(b1-3)GlcNAc(b1-2)Man(a1-3)[Fuc(a1-2)[Gal(a1-3)]Gal(b1-3)GlcNAc(b1-2)Man(a1-6)]Man(b1-4)GlcNAc(b1-4)GlcNAc
Method in brief: as §1

[3] = biological target: Fuc(a1-2)[Gal(a1-3)]Gal(b1-4)Glc
Method in brief: as §1

[4] = biological target: Fuc(a1-2)[Gal(a1-3)]Gal(b1-4)GlcNAc
Method in brief: as §1

[5] = biological target: Fuc(a1-2)[Gal(a1-3)]Gal(b1-4)GlcNAc(b1-2)Man(a1-3)[Fuc(a1-2)[Gal(a1-3)]Gal(b1-4)GlcNAc(b1-2)Man(a1-6)]Man(b1-4)GlcNAc(b1-4)GlcNAc
Method in brief: as §1

[6] = biological target: Fuc(a1-2)[Gal(a1-3)]Gal(b1-4)[Fuc(a1-3)]GlcNAc
Method in brief: as §1

[7] = biological target: Fuc(a1-2)[Gal(a1-4)]Gal(b1-4)GlcNAc
Method in brief: as §1

[8] = biological target: Fuc(a1-2)[GalNAc(a1-3)]Gal
Method in brief: as §1

[9] = biological target: Fuc(a1-2)[GalNAc(a1-3)]Gal(b1-3)GalNAc(a1-3)[Fuc(a1-2)]Gal(b1-4)GlcNAc
Method in brief: as §1

[10] = biological target: Fuc(a1-2)[GalNAc(a1-3)]Gal(b1-3)GlcNAc
Method in brief: as §1

[11] = biological target: Fuc(a1-2)[GalNAc(a1-3)]Gal(b1-3)GlcNAc(b1-2)Man(a1-3)[Fuc(a1-2)[GalNAc(a1-3)]Gal(b1-3)GlcNAc(b1-2)Man(a1-6)]Man(b1-4)GlcNAc(b1-4)GlcNAc
Method in brief: as §1

[12] = biological target: Fuc(a1-2)[GalNAc(a1-3)]Gal(b1-4)Glc
Method in brief: as §1

[13] = biological target: Fuc(a1-2)[GalNAc(a1-3)]Gal(b1-4)GlcNAc
Method in brief: as §1

[14] = biological target: Fuc(a1-2)[GalNAc(a1-3)]Gal(b1-4)GlcNAc(b1-2)Man(a1-3)[Fuc(a1-2)[GalNAc(a1-3)]Gal(b1-4)GlcNAc(b1-2)Man(a1-6)]Man(b1-4)GlcNAc(b1-4)GlcNAc
Method in brief: as §1

[15] = biological target: Fuc(a1-2)[GalNAc(a1-3)]Gal(b1-4)GlcNAc(b1-3)Gal(b1-4)GlcNAc
Method in brief: as §1

[16] = biological target: Fuc(a1-2)[GalNAc(a1-3)]Gal(b1-4)GlcNAc(b1-3)Gal(b1-4)GlcNAc(b1-3)Gal(b1-4)GlcNAc
Method in brief: as §1

[17] = biological target: Fuc(a1-2)[GalNAc(a1-3)]Gal(b1-4)[Fuc(a1-3)]GlcNAc
Method in brief: as §1

[18] = biological target: Fuc(a1-2)[GalNAc(a1-4)]Gal(b1-4)GlcNAc
Method in brief: as §1

[19] = biological target: Fuc(a1-2)[GalNAc(b1-3)]Gal
Method in brief: as §1

Fuc(a1-3)GlcNAc = biological target: Fuc(a1-3)GlcNAc
Method in brief: as §1

[20] = biological target: Fuc(a1-3)[Gal(b1-4)]Glc6S
Method in brief: as §1

[21] = biological target: Fuc(a1-3)[Gal(b1-4)]GlcNAc
Method in brief: as §1

[22] = biological target: Fuc(a1-3)[Gal(b1-4)]GlcNAc(b1-2)Man(a1-3)[Fuc(a1-3)[Gal(b1-4)]GlcNAc(b1-2)Man(a1-6)]Man(b1-4)GlcNAc(b1-4)GlcNAc
Method in brief: as §1

[23] = biological target: Fuc(a1-3)[Gal(b1-4)]GlcNAc(b1-3)Gal(b1-3)[Fuc(a1-4)]GlcNAc
Method in brief: as §1

[24] = biological target: Fuc(a1-3)[Gal(b1-4)]GlcNAc(b1-3)GalNAc
Method in brief: as §1

[25] = biological target: Fuc(a1-3)[Gal(b1-4)]GlcNAc(b1-4)Gal(b1-4)[Fuc(a1-3)]GlcNAc
Method in brief: as §1

[26] = biological target: Fuc(a1-3)[Gal(b1-4)]GlcNAc(b1-4)Gal(b1-4)[Fuc(a1-3)]GlcNAc(b1-4)Gal(b1-4)[Fuc(a1-3)]GlcNAc
Method in brief: as §1

[27] = biological target: Fuc(a1-3)[Gal(b1-4)]GlcNAc(b1-6)[Gal(b1-3)GlcNAc(b1-3)]Gal(b1-4)Glc
Method in brief: as §1

[28] = biological target: Fuc(a1-3)[Gal(b1-4)]GlcNAc6S
Method in brief: as §1

[29] = biological target: Fuc(a1-3)[Gal3S(b1-4)]GlcNAc
Method in brief: as §1

[30] = biological target: Fuc(a1-3)[Gal3S(b1-4)]GlcNAc6S
Method in brief: as §1

[31] = biological target: Fuc(a1-3)[GalNAc(b1-4)]GlcNAc
Method in brief: as §1

Fuc(a1-4)GlcNAc = biological target: Fuc(a1-4)GlcNAc
Method in brief: as §1

Fuc(b1-3)GlcNAc = biological target: Fuc(b1-3)GlcNAc
Method in brief: as §1

Gal(a1-2)Gal = biological target: Gal(a1-2)Gal
Method in brief: as §1

Gal(a1-3)Gal = biological target: Gal(a1-3)Gal
Method in brief: as §1

Gal(a1-3)Gal(b1-3)GlcNAc = biological target: Gal(a1-3)Gal(b1-3)GlcNAc
Method in brief: as §1

[32] = biological target: Gal(a1-3)Gal(b1-3)GlcNAc(b1-2)Man(a1-3)[Gal(a1-3)Gal(b1-3)GlcNAc(b1-2)Man(a1-6)]Man(b1-4)GlcNAc(b1-4)GlcNAc
Method in brief: as §1

[33] = biological target: Gal(a1-3)Gal(b1-3)[Fuc(a1-4)]GlcNAc(b1-2)Man(a1-3)[Gal(a1-3)Gal(b1-3)[Fuc(a1-4)]GlcNAc(b1-2)Man(a1-6)]Man(b1-4)GlcNAc(b1-4)GlcNAc
Method in brief: as §1

Gal(a1-3)Gal(b1-4)Glc = biological target: Gal(a1-3)Gal(b1-4)Glc
Method in brief: as §1

Gal(a1-3)Gal(b1-4)GlcNAc = biological target: Gal(a1-3)Gal(b1-4)GlcNAc
Method in brief: as §1

[34] = biological target: Gal(a1-3)Gal(b1-4)GlcNAc(b1-3)GalNAc
Method in brief: as §1

[35] = biological target: Gal(a1-3)Gal(b1-4)[Fuc(a1-3)]GlcNAc
Method in brief: as §1

[36] = biological target: Gal(a1-3)Gal(b1-4)[Fuc(a1-3)]GlcNAc(b1-2)Man(a1-3)[Gal(a1-3)Gal(b1-4)[Fuc(a1-3)]GlcNAc(b1-2)Man(a1-6)]Man(b1-4)GlcNAc(b1-4)GlcNAc
Method in brief: as §1

B1: Ecp6 (Cladosporium fulvum), B3VBK9 (protein)
chain: MQSMILFAAALMGAAVNGFVLPRTDDPDCETKATDCGSTSNIKYTVVKGDTLTSIAKKFKSGICNIVSVNKLANPNLIELGATLIIPENCSNPDNKSCVSTPAEPTETCVPGLPGSYTIVSGDTLTNISQDFNITLDSLIAANTQIENPDAIDVGQIITVPVCPSSQCEAVGTYNIVAGDLFVDLAATYHTTIGQIKALNNNVNPSKLKVGQQIILPQDCKNVTTAVA
- glycan array binding signal (z-score) (Fuc(a1-2)[Gal(a1-3)]Gal): -0.086
- glycan array binding signal (z-score) [1]: -0.083
- glycan array binding signal (z-score) [2]: -0.095
- glycan array binding signal (z-score) [3]: -0.095
- glycan array binding signal (z-score) [4]: -0.078
- glycan array binding signal (z-score) [5]: -0.091
- glycan array binding signal (z-score) [6]: -0.021
- glycan array binding signal (z-score) [7]: -0.084
- glycan array binding signal (z-score) [8]: -0.088
- glycan array binding signal (z-score) [9]: -0.093
- glycan array binding signal (z-score) [10]: -0.086
- glycan array binding signal (z-score) [11]: -0.099
- glycan array binding signal (z-score) [12]: -0.095
- glycan array binding signal (z-score) [13]: -0.082
- glycan array binding signal (z-score) [14]: -0.09
- glycan array binding signal (z-score) [15]: -0.063
- glycan array binding signal (z-score) [16]: -0.085
- glycan array binding signal (z-score) [17]: -0.094
- glycan array binding signal (z-score) [18]: -0.095
- glycan array binding signal (z-score) [19]: -0.077
- glycan array binding signal (z-score) (Fuc(a1-3)GlcNAc): -0.089
- glycan array binding signal (z-score) [20]: -0.102
- glycan array binding signal (z-score) [21]: -0.06
- glycan array binding signal (z-score) [22]: -0.106
- glycan array binding signal (z-score) [23]: -0.094
- glycan array binding signal (z-score) [24]: -0.088
- glycan array binding signal (z-score) [25]: -0.069
- glycan array binding signal (z-score) [26]: -0.068
- glycan array binding signal (z-score) [27]: -0.098
- glycan array binding signal (z-score) [28]: -0.103
- glycan array binding signal (z-score) [29]: -0.098
- glycan array binding signal (z-score) [30]: -0.073
- glycan array binding signal (z-score) [31]: -0.089
- glycan array binding signal (z-score) (Fuc(a1-4)GlcNAc): -0.098
- glycan array binding signal (z-score) (Fuc(b1-3)GlcNAc): -0.083
- glycan array binding signal (z-score) (Gal(a1-2)Gal): -0.1
- glycan array binding signal (z-score) (Gal(a1-3)Gal): -0.071
- glycan array binding signal (z-score) (Gal(a1-3)Gal(b1-3)GlcNAc): -0.065
- glycan array binding signal (z-score) [32]: -0.052
- glycan array binding signal (z-score) [33]: -0.056
- glycan array binding signal (z-score) (Gal(a1-3)Gal(b1-4)Glc): -0.067
- glycan array binding signal (z-score) (Gal(a1-3)Gal(b1-4)GlcNAc): -0.064
- glycan array binding signal (z-score) [34]: -0.102
- glycan array binding signal (z-score) [35]: -0.102
- glycan array binding signal (z-score) [36]: -0.093
